Series [1] relates to Staphylococcus aureus MSSA (Newman). Description: Broth microdilution MIC assay, Staphylococcus aureus MSSA (Newman). To be noted: MIC class score, MIC100, broth microdilution, Newman strain. The series is classed as cell-based. (In general: Dilution methods test growth across graded concentrations, often in twofold steps.)
Series [2] relates to Human hepatocytes (HepaRG cells). Briefly: Human cytotoxicity assay in vitro (CellTiter-Glo), hepatocytes. The class given is cell-based. Also noted: key: 4: inhibiting cell viability 50% or more at concentrations of 10 μM or less; 3: causing at least 80% inhibition of viability at 25 μM; showing toxicity at 25 μM, but causing less than 20% inhibition of viability; 1: not causing a loss of viability at concentrations between 25 and 50 μM; without signs of cell viability loss at concentrations of 50 μM or higher.

Series [3] relates to Human keratinocytes (HaCaT cells). Briefly: Human cytotoxicity assay in vitro (CellTiter-Glo), keratinocytes. The class given is cell-based. A general note: Cellular ATP, detected with luciferase, serves as a proxy for viable cell number.
The test system of series [4] is Escherichia coli TolC mutant strain ΔtolC. The series is classed as cell-based.
For series [5], the system named is Mycobacterium smegmatis (mc(2)155). Briefly: Broth microdilution MIC assay, Mycobacterium smegmatis.
Series [6] relates to Streptococcus pneumoniae (Chester, ATCC49619). Description: Broth microdilution MIC assay, Streptococcus pneumoniae. The series is classed as cell-based. To be noted: MIC class score, MIC100, broth microdilution.
Series [7] relates to Staphylococcus aureus MRSA (COL). Briefly: Broth microdilution MIC assay, Staphylococcus aureus MRSA (COL). The series is classed as cell-based. To be noted: MIC class score, MIC100, broth microdilution, COL strain.

Each structure is given as a SMILES string.

Turning to `Cc1nc(-c2ccc(-c3ccc(Cl)cc3Cl)o2)[nH]c1-c1ccc(F)cc1` [compound 16], the “Antibacterial activity Staphylococcus aureus (MSSA)” value in series [1] is given as 4 (MIC of 1 μg/ml to 3 μg/ml for preventing staphylococcal growth 100% (MIC100)). The “cytotoxicity, cell line H (hepatocytes), class” value (shortened to “cytotoxicity, cell line H”) in series [2] stood at 3. Besides, the “cytotoxicity, cell line K (keratinocytes), class” value (shortened to “cytotoxicity, cell line K”) in series [3] was 1 (causing less than 50% inhibition of cell viability at 50 μM).
With `Cc1[nH]c(-c2ccc(-c3cccc(C(F)(F)F)c3)o2)nc1-c1ccc(F)cc1` [compound 38], the “Antibacterial activity Staphylococcus aureus (MSSA)” value in series [1] is listed as 4 (MIC of 1 μg/ml to 3 μg/ml for preventing staphylococcal growth 100% (MIC100)). The “cytotoxicity, cell line H” value in series [2] was 1 (not causing a loss of viability at concentrations between 25 and 50 μM). Moreover, the “cytotoxicity, cell line K” value in series [3] is listed as 2 (causing >50% inhibition of cell viability at 25 μM).
In the case of `Cc1[nH]c(-c2ccc(-c3ccccc3F)s2)nc1-c1ccccc1` [compound 15], the “Antibacterial activity, EC Δ (Escherichia coli ΔtoIC), MIC class” value (“Antibacterial activity, EC Δ” for short) in series [4] is on record as 1 (MIC100 of 20-50 μg/ml or an MIC50 of <10 μg/ml). In series [2], the “cytotoxicity, cell line H” value was 1 (not causing a loss of viability at concentrations between 25 and 50 μM). Further, the “cytotoxicity, cell line K” value in series [3] is 1 (causing less than 50% inhibition of cell viability at 50 μM).
On to `Cc1[nH]c(-c2ccc(-c3ccc(Cl)c(C(F)(F)F)c3)o2)nc1-c1ccc(F)cc1` [compound 42], for which the “Antibacterial activity Staphylococcus aureus (MSSA)” value in series [1] is 4 (MIC of 1 μg/ml to 3 μg/ml for preventing staphylococcal growth 100% (MIC100)). Besides, the “cytotoxicity, cell line H” value in series [2] is 1 (not causing a loss of viability at concentrations between 25 and 50 μM). Moreover, the “cytotoxicity, cell line K” value in series [3] was 3 (causing more than 50% inhibition of cell viability at 10 μM). Besides, the “Antibacterial activity, MS (Mycobacterium smegmatis), MIC class” value (shortened to “Antibacterial activity, MS”) in series [5] is given as 1 (MIC100 of 20-50 μg/ml or an MIC50 of <10 μg/ml).
`Cc1[nH]c(-c2ccc(-c3ccccc3OC(F)(F)F)o2)nc1-c1ccccc1` [compound 18]: the “Antibacterial activity, EC Δ” value in series [4] is on record as 1 (MIC100 of 20-50 μg/ml or an MIC50 of <10 μg/ml). Also, in series [2], the “cytotoxicity, cell line H” value worked out at 2. Besides, in series [3], the “cytotoxicity, cell line K” value is 2 (causing >50% inhibition of cell viability at 25 μM).
`Cc1[nH]c(-c2ccc(-c3ccc(C(F)(F)F)cc3)o2)nc1-c1ccc(Cl)cc1` [compound 47]: the “Antibacterial activity Staphylococcus aureus (MSSA)” value in series [1] is given as 4 (MIC of 1 μg/ml to 3 μg/ml for preventing staphylococcal growth 100% (MIC100)). For the same molecule, the “cytotoxicity, cell line H” value in series [2] was 1 (not causing a loss of viability at concentrations between 25 and 50 μM). Further, the “cytotoxicity, cell line K” value in series [3] is recorded as 2 (causing >50% inhibition of cell viability at 25 μM).
In the case of `Cc1[nH]c(-c2ccc(-c3ccc(C(F)(F)F)cc3)s2)nc1-c1ccccc1` [compound 46], the “cytotoxicity, cell line H” value in series [2] was 1 (not causing a loss of viability at concentrations between 25 and 50 μM). For the same molecule, in series [3], the “cytotoxicity, cell line K” value is on record as 1 (causing less than 50% inhibition of cell viability at 50 μM). For the same molecule, the “Antibacterial activity, MS” value in series [5] is listed as 1 (MIC100 of 20-50 μg/ml or an MIC50 of <10 μg/ml).
Regarding `Cc1[nH]c(-c2ccc(-c3cccc(F)c3C)o2)nc1-c1ccccc1` [compound 60], in series [4], the “Antibacterial activity, EC Δ” value is 1 (MIC100 of 20-50 μg/ml or an MIC50 of <10 μg/ml). Also, in series [2], the “cytotoxicity, cell line H” value was determined as 3. Further, in series [3], the “cytotoxicity, cell line K” value is listed as 2 (causing >50% inhibition of cell viability at 25 μM).
As to `Cc1nc(-c2ccc(-c3ccc(Cl)c(OC(F)(F)F)c3)o2)[nH]c1-c1ccccc1` [compound 41], in series [6], the “Antibacterial activity Streptococcus pneumoniae” value is recorded as 4 (MIC of 1 μg/ml or less for preventing streptococcal growth 100% (MIC100)). Moreover, in series [2], the “cytotoxicity, cell line H” value stood at 2. The “cytotoxicity, cell line K” value in series [3] is reported as 2 (causing >50% inhibition of cell viability at 25 μM). For the same molecule, the “Antibacterial activity, MS” value in series [5] is 1 (MIC100 of 20-50 μg/ml or an MIC50 of <10 μg/ml).
For `FC(F)(F)Oc1ccccc1-c1ccc(-c2nc(Cl)c(-c3ccccc3)[nH]2)o1` [compound 64] the same measures were 4 (MIC of 1 μg/ml or less for preventing streptococcal growth 100% (MIC100)), 3, 3 (causing more than 50% inhibition of cell viability at 10 μM) and 1 (MIC100 of 20-50 μg/ml or an MIC50 of <10 μg/ml).
In the case of `Cc1ccccc1-c1cnc(-c2ccc(-c3ccccc3C(F)(F)F)o2)[nH]1` [compound 69], the “Antibacterial activity Streptococcus pneumoniae” value in series [6] is reported as 4 (MIC of 1 μg/ml or less for preventing streptococcal growth 100% (MIC100)). For the same molecule, in series [4], the “Antibacterial activity, EC Δ” value was 1 (MIC100 of 20-50 μg/ml or an MIC50 of <10 μg/ml). Besides, the “cytotoxicity, cell line H” value in series [2] came to 2. Further, the “cytotoxicity, cell line K” value in series [3] is listed as 1 (causing less than 50% inhibition of cell viability at 50 μM).
`Cc1nc(-c2ccc(-c3ccccc3OC(F)(F)F)o2)[nH]c1-c1ccccc1Cl` [compound 19]: the “Antibacterial activity Staphylococcus aureus (MSSA)” value in series [1] is listed as 1 (MIC100 of 20-50 μg/ml or an MIC50 of <10 μg/ml). The “Antibacterial activity Staphylococcus aureus (MRSA)” value in series [7] is listed as 1 (MIC100 of 20-50 μg/ml or an MIC50 of <10 μg/ml). Moreover, in series [2], the “cytotoxicity, cell line H” value turned out to be 3. For the same molecule, the “cytotoxicity, cell line K” value in series [3] is 0 (not causing loss of cell viability at concentrations of 50 μM or higher).
As to `Cc1nc(-c2ccc(-c3cccc(C(F)(F)F)c3)o2)[nH]c1-c1ccccc1` [compound 142], in series [1], the “Antibacterial activity Staphylococcus aureus (MSSA)” value is reported as 4 (MIC of 1 μg/ml to 3 μg/ml for preventing staphylococcal growth 100% (MIC100)). Also, the “Antibacterial activity Staphylococcus aureus (MRSA)” value in series [7] is 4 (MIC of 1 μg/ml to 3 μg/ml for preventing staphylococcal growth 100% (MIC100)).
Turning to `Cc1nc(-c2ccc(-c3ccc(Cl)c(OC(F)(F)F)c3)o2)[nH]c1-c1ccc(Cl)cc1` [compound 44], the “Antibacterial activity Staphylococcus aureus (MSSA)” value in series [1] is 4 (MIC of 1 μg/ml to 3 μg/ml for preventing staphylococcal growth 100% (MIC100)). Moreover, in series [2], the “cytotoxicity, cell line H” value was 2. Further, in series [5], the “Antibacterial activity, MS” value is listed as 1 (MIC100 of 20-50 μg/ml or an MIC50 of <10 μg/ml).
With `Cc1[nH]c(-c2ccc(-c3ccccc3OC(F)(F)F)o2)nc1-c1ccc(F)cc1` [compound 23, 4-(4-Fluoro-phenyl)-5-methyl-2-[5-(2-trifluoromethoxy-phenyl)-furan-2-yl]-1H-imidazole], in series [6], the “Antibacterial activity Streptococcus pneumoniae” value is on record as 4 (MIC of 1 μg/ml or less for preventing streptococcal growth 100% (MIC100)). Moreover, the “Antibacterial activity Staphylococcus aureus (MRSA)” value in series [7] was 4 (MIC of 1 μg/ml to 3 μg/ml for preventing staphylococcal growth 100% (MIC100)). Also, the “cytotoxicity, cell line H” value in series [2] was 3. Besides, the “cytotoxicity, cell line K” value in series [3] is 2 (causing >50% inhibition of cell viability at 25 μM).
Take `Cc1[nH]c(-c2ccc(-c3ccccc3C(F)(F)F)o2)nc1-c1ccccc1` [compound 17]: the “Antibacterial activity, EC Δ” value in series [4] is reported as 1 (MIC100 of 20-50 μg/ml or an MIC50 of <10 μg/ml). In addition, in series [2], the “cytotoxicity, cell line H” value is on record as 3. Further, the “cytotoxicity, cell line K” value in series [3] is given as 3 (causing more than 50% inhibition of cell viability at 10 μM).

(Values after patent publication US10456379B2, “Imidazole-based antimicrobial agents” (priority 2014, dated 2019).)
